Measured values published in PubChem BioAssay (NCATS).
This list was built around the results that the source calls inconclusive (neither active nor inactive); the mix of calls is not that of the screen. For some of these results: Where the call is inconclusive, the potency comes from a doubtful curve fit. The source made the active and inactive calls. Unless noted, calls follow the shape of the dose curve; as a rule, active = well fitted curve in the direction sought with a large enough effect; inconclusive = small, poorly fitted or top-dose-only effect, or another doubt; inactive = no such curve, though single readings can be large; an effect the other way counts as inactive or inconclusive.

What was measured:
[1] = target: Endonuclease 4 (Escherichia coli (strain K12)) (UniProt P0A6C1); test: Counterscreen for APE1 Inhibitors: qHTS Assay for Inhibitors of Endonuclease IV (AID 2565);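 also: plate controls were uninhibited enzyme wells for no effect and no enzyme buffer wells for full effect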
Outline: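 Incision of a double-stranded 50 nM TAMRA/BHQ-2 abasic substrate was followed kinetically (525/598 nm, reads every 60 s) after 15 min enzyme–compound preincubation with 2 nM EndoIV in pH 7.5 Tris buffer with MgCl2, DTT and Tween-20; concentration-response format.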

[2] = target: Ubiquitin carboxyl-terminal hydrolase 1 (Homo sapiens) (UniProt O94782); test: Inhibitors of USP1/UAF1: Pilot qHTS (AID 504865);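 also: rhodamine fluorescence freed from ubiquitin-rhodamine substrate followed over time; potency is read from the fitted curve at half-maximal effect; nearly all actives have a fitted effect of over 35% in size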
Outline: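 USP1/UAF1 complex at 1 nM preincubated 15 min at room temperature with compound, then Ub-Rho substrate added at 150 nM final. Fluorescence (480/540 nm) read kinetically in 50 mM HEPES pH 7.8, 0.5 mM EDTA, 1 mM TCEP, 0.1 mg/ml BSA, 0.01% Tween-20.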

[3] = test system: Zika virus NS2B-NS3 protease (linked construct); test: Confirmatory screen NINDS AMC qHTS for Zika virus inhibitors (AID 1347152); also: nearly all actives have a fitted effect of over 70% in size; also: potency is read from the fitted curve at half-maximal effect;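 as to activity change, negative = inhibition: AMC fluorescence gain from cleaved Bz-Nle-KRR-AMC substrate over 15 min; top concentration of the series differs between compounds; 0% = no-inhibitor control and -100% = no-enzyme control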
Outline: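 Linked NS2B-NS3 protease, 1 nM, in 10 mM Tris-HCl pH 8.0, 0.01% Tween 20; compounds preincubated 15 min at room temperature. Nle-KRR-AMC 10 microM (Km 18.3 µM); 15-min fluorescence change (340/450 nm) fitted to 4-parameter Hill.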

[4] = test system: Zika virus NS2B-NS3 protease (unlinked complex); test: Confirmatory screen GU AMC qHTS for Zika virus inhibitors (AID 1347153); also: potency is read from the fitted curve at half-maximal effect; nearly all actives have a fitted effect of over 70% in size
Outline: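 Unlinked enzyme 25 nM, Tris pH 8.0/0.01% Tween 20; cpd 15 min RT, dark; + AMC substrate 10 µM (Km 18.3 µM); 340/450 nm read at t0 and 15 min; % inhibition → 4-param fit.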

[5] = ZIKV-mCherry secondary qHTS for Zika virus inhibitors (AID 1347158); details: Vero cells, ZIKV-mCherry infection imaging, 48-72 h; activity change, negative = inhibition: at 49.2 µM (top of the series); also: potency is read from the fitted curve at half-maximal effect; as to activity change, negative = inhibition: top concentration of the series differs between compounds
Outline: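 Compounds were tested in Vero monkey kidney cells infected with recombinant mCherry-expressing Zika virus at MOI 1 for 48-72 h at 37 °C. Fixed cells were nuclear-stained and imaged, and infection rate was taken as the fraction of mCherry-positive cells.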

[6] = test system: Zika virus NS2B-NS3 protease (linked); test: 384 well plate NINDS AMC confirmatory qHTS for Zika virus inhibitors (AID 1347163); also: potency is read from the fitted curve at half-maximal effect; nearly all actives have a fitted effect of over 50% in size
Outline: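 Fluorescence at 355/460 nm was read after 25 minutes of cleavage of 30 microM Ac-VKTGKR-AMC at room temperature, in the dark. Before substrate addition, compounds (up to 1 mM final) sat ~15 minutes with 5, 30 or 60 nM linked protease. Signals were normalized to no-enzyme and no-inhibitor wells.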

[7] = Tertiary RLuc qRT-PCR qHTS assay for Zika virus inhibitors (AID 1347169); also: nearly all actives have a fitted effect of over 55% in size; also: potency is read from the fitted curve at half-maximal effect; as to activity change, negative = inhibition: top concentration of the series differs between compounds; % is scaled to controls: 0 for no effect and ±100 for the full control effect
Outline: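 Vero cells (1,000/well) infected with recombinant ZIKV-RLuc (Cambodian) at MOI 1-2 after compound addition, 48-72 hrs at 37 degrees C. Live-cell Renilla luciferase substrate added; luminescence read after 1-1.5 hrs.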

[8] = test system: Zika virus NS2B-NS3 protease; test: Primary screen GU AMC qHTS for Zika virus inhibitors (AID 1347154); also: potency is read from the fitted curve at half-maximal effect; nearly all actives have a fitted effect of over 70% in size
Outline: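 Fluorogenic AMC-substrate cleavage by noncovalent NS2B-NS3 protease complex (25 nM, pH 8.0 Tris buffer with Tween 20) followed for 15 minutes at room temperature (~20% conversion). Percent inhibition from ex340/em450 signal change, fitted by 4-parameter Hill equation.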

[9] = Confirmatory screen NINDS Rhodamine qHTS for Zika virus inhibitors (AID 1347161); also: potency is read from the fitted curve at half-maximal effect; nearly all actives have a fitted effect of over 60% in size
Outline: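 In 10 mM Tris-HCl pH 8.0 containing 0.01% Tween 20, linked NS2B-NS3 protease (25 nM final) is exposed to test compounds for 15 min. Cleavage of 1.5 microM Rhodamine110 substrate is tracked by fluorescence over 15 min.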

[10] = HepG2 cells viability qHTS for Zika virus inhibitors (AID 1347168); also: potency is read from the fitted curve at half-maximal effect
Outline: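 Luminescent ATP readout (CellTiter Glo) after 30 min at 37 degrees C gives viability; cells in DMEM + 4% FBS were treated 24 to 48 hours with compound, following overnight attachment.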

[11] = target: Mitogen-activated protein kinase 10 (Mus musculus) (UniProt Q61831); test: JNK3 AlphaScreen Assay (AID 530; active = well fitted curve in either direction with a large enough effect, not every such curve was filed as active; inconclusive = small, poorly fitted or top-dose-only effect, or another doubt;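 also: kinase came from lysate of stimulated human HepG2 cells; signal reports phosphorylation of biotinylated GST-cJun 1-79 at Ser73 with 10 µM ATP; potency is read from the fitted curve at half-maximal effect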); details: JNK3 lysate, c-Jun phosphorylation; activity change, negative = inhibition: at 57.1 µM (top of the series)
Outline: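 qHTS titrations with 15 min compound pre-incubation before adding ATP (10 uM final). Read-out: AlphaScreen of Ser73-phosphorylated biotin-GST-cJun using HepG2 lysate JNK3 activated by IL-1β and TNFα.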

[12] = qHTS Assay for Identification of Small Molecule Antagonists for NFkB Signaling Pathway (AID 895; active = well fitted inhibition curve with a large enough effect in the signal ratio, with a control signal flat, not every such curve was filed as active; inconclusive = small, poorly fitted or top-dose-only effect, or effect the other way, or a change in a side signal; the % refers to the signal ratio; also: % is scaled to controls: 0 for no effect and ±100 for the full control effect); details: NFkB beta-lactamase reporter cells, FRET ratio 460/530, stimulated with 10 pM TNF alpha; activity change, negative = inhibition: at 38.3 µM (top of the series)
Outline: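 Beta-lactamase reporter read-out (460 and 530 nm emission ratio, 405 nm excitation, 2 hrs substrate loading RT) after 5 hr stimulation with 10 pM TNF alpha in compound-treated NFkB-bla ME-180 cells in low-serum medium.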

[13] = qHTS Assay for Identification of Small Molecule Agonists for Hypoxia Response Element Signaling Pathway (AID 914; active = well fitted activation curve with a large enough effect in the signal ratio, with a control signal flat, not every such curve was filed as active; inconclusive = small, poorly fitted or top-dose-only effect, or effect the other way, or a change in a side signal; the % refers to the signal ratio; also: top concentration of the series differs between compounds; % of control where 0% means no effect); details: ME-180 (cervical carcinoma) HRE-bla reporter, beta-lactamase ratio, CoCl2, 17 h; activation: stronger effect = higher value
Outline: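 A beta-lactamase reporter under hypoxia response element control in ME-180 cells served as the system. Compound titrations plus EC50 CoCl2 ran 17 h at 37 degrees Celsius; AC50 values were fitted from %Activity.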

[14] = qHTS Assay for Identification of Small Molecule Agonists for Thrombopoietin (TPO) Signaling Pathway (AID 917); also: potency is read from the fitted curve at half-maximal effect
Outline: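 Stimulation at the TPO EC50 (26 pM final) was used to detect activators. Ba/F3 mouse cells bearing human TPO receptor and a luciferase reporter under the Glycoprotein IIb promoter were exposed to compounds for 24 hrs at 37 C.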

[15] = target: Muscarinic acetylcholine receptor M1 (Rattus norvegicus) (UniProt P08482); test: qHTS Assay for Antagonists of Acetylcholine Muscarinic M1 Receptor: Kinetic Measurement of Intracellular Calcium Response (AID 943);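 also: Fluo-4 calcium signal as peak divided by basal fluorescence over 4 min; nearly all actives have a fitted effect of over 75% in size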
Chain of UniProt P08482 (P08482 whole entry, looked up): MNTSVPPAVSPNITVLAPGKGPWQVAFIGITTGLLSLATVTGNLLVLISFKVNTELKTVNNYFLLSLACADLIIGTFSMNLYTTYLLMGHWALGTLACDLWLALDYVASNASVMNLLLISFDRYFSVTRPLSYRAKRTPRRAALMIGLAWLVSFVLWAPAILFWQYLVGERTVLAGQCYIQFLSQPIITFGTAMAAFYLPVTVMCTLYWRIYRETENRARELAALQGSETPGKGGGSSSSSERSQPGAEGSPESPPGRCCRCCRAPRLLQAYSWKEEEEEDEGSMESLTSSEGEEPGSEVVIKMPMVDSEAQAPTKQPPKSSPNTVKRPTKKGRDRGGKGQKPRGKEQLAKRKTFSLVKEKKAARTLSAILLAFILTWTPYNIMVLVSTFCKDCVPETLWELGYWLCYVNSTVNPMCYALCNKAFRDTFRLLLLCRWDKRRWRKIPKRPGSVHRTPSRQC
Outline: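 Antagonism is measured as inhibition of the carbachol-evoked calcium rise in CHO cells transfected with rat M1. Cells are dye-loaded, exposed to compound for 10 min, then stimulated with 100 nM carbachol (EC80).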

[16] = qHTS Assay for Lipid Storage Modulators (AID 1519; calls by dose curve; also: % is scaled to controls: 0 for no effect and ±100 for the full control effect); details: Drosophila S3 cells, BODIPY lipid droplet/cell ratio, laser cytometry, cells loaded with oleic acid; activity change, negative = inhibition: at 57.5 µM (top of the series) unless noted
Outline: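 Cells seeded at 5,000 per well were treated with compounds over a concentration series and loaded with oleic acid (400 uM, as added). Lipid droplet fluorescence (488 nm excitation, 500-530 nm channel) was read by laser-scanning cytometry and normalized to 20 uM Triacsin C.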

[17] = qHTS for differential inhibitors of proliferation of Plasmodium falciparum line 7G8 (AID 1815);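 also: potency is read from the fitted curve at half-maximal effect; parasite growth measured after three days of incubation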
[18] = qHTS for differential inhibitors of proliferation of Plasmodium falciparum line GB4 (AID 1816); details: Potency: Plasmodium falciparum GB4 proliferation inhibition;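 also: potency is read from the fitted curve at half-maximal effect; parasite growth measured after 72 h incubation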
[19] = qHTS for differential inhibitors of proliferation of Plasmodium falciparum line D10 (AID 1877);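 also: potency is read from the fitted curve at half-maximal effect; parasites grown with compound for 72 h before DNA staining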
[20] = qHTS for differential inhibitors of proliferation of Plasmodium falciparum line HB3 (AID 1886); details: Potency: Plasmodium falciparum HB3 proliferation inhibition;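 also: potency is read from the fitted curve at half-maximal effect; parasites grown with compound for 72 h before SYBR Green readout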
[21] = target: RecQ-like DNA helicase BLM (Homo sapiens) (UniProt P54132); test: qHTS Validation Assay for Inhibitors of Bloom's syndrome helicase (BLM) (AID 2364); also: potency is read from the fitted curve at half-maximal effect
Chain of UniProt P54132 (P54132 whole entry, looked up): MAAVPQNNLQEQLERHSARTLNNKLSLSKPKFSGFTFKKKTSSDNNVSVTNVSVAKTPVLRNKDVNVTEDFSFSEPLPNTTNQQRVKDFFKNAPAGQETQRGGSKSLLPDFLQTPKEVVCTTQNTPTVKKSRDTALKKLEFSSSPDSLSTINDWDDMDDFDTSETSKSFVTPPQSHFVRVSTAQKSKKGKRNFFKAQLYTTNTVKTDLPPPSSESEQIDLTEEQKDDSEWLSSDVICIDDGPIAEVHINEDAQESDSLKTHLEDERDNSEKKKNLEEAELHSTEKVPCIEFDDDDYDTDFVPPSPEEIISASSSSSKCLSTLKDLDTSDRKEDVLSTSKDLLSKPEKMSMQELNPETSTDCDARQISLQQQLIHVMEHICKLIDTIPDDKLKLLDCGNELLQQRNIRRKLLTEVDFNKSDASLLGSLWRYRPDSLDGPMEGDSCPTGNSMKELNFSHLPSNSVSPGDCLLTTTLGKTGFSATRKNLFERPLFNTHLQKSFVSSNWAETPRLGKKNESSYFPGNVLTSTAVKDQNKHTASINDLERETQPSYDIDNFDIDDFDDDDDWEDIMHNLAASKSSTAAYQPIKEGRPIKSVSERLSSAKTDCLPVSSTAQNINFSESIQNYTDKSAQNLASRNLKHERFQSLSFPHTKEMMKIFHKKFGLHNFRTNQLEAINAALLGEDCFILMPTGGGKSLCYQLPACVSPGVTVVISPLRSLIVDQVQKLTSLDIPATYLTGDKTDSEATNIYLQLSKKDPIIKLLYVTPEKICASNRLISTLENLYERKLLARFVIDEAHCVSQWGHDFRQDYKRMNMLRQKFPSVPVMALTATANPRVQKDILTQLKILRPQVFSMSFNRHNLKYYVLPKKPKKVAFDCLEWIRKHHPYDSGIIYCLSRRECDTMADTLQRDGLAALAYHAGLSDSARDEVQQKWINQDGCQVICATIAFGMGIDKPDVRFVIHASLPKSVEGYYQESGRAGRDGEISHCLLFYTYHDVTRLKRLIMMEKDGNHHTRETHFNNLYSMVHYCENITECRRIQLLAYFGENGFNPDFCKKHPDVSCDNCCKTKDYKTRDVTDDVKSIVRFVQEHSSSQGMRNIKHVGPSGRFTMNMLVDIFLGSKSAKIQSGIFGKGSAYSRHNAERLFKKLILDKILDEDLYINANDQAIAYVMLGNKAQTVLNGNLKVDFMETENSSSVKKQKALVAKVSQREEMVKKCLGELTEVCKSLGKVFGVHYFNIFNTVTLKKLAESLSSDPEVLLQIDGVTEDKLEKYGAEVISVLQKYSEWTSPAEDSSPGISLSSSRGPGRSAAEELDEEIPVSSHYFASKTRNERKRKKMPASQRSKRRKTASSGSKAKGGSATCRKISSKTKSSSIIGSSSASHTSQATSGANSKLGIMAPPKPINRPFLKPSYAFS
Outline: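 Forked 20-bp duplex substrate (200 nM, TAMRA/BHQ-2) plus 2 mM ATP added after 15 min compound preincubation with 50 nM enzyme, pH 8.0, poly(dI-dC) 2.5 ug/ml. Strand separation followed by fluorescence (525/598 nm) over 2 h, normalized to enzyme-free and DMSO controls.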

[22] = target: ATP-dependent 6-phosphofructokinase (Trypanosoma brucei brucei) (UniProt O15648); test: qHTS Validation Assay to Find Inhibitors of T. brucei phosphofructokinase (AID 485368); also: potency is read from the fitted curve at half-maximal effect
Chain of UniProt O15648 (O15648 whole entry, looked up): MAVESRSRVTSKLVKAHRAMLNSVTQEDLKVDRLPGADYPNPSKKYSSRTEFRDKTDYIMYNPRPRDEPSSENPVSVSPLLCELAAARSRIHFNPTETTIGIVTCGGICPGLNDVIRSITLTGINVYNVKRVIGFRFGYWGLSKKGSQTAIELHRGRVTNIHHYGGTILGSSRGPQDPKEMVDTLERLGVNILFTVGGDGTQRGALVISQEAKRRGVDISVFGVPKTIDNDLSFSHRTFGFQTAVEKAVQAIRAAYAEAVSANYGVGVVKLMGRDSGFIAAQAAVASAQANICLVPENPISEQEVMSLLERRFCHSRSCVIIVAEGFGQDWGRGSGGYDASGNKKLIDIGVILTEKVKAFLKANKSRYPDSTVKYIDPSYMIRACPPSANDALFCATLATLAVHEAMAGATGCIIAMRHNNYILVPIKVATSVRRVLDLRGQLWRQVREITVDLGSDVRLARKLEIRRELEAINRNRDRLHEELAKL
Outline: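 PFK-generated ADP was measured after 45 min at room temperature using ADP-Glo. The reaction contained 0.5 mM F6P and 0.1 mM ATP.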

[23] = Quantitative high throughput screen for delayed death inhibitors of the malarial parasite plastid, 96 hour incubation (AID 488745); also: potency is read from the fitted curve at half-maximal effect; nearly all actives have a fitted effect of over 70% in size
Outline: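 Readout is firefly luciferase luminescence from an integrated reporter in P. falciparum; lower signal marks inhibited growth. Cultures at 2% hematocrit and 0.1% parasitemia were treated with compound across two generations (96 h, 37 C, 5% CO2).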

[24] = target: M-phase phosphoprotein 8 (Homo sapiens) (UniProt Q99549); test: qHTS Validation Assay for Inhibitors for MPP8 Chromodomain Interactions with Methylated Histone Tails (AID 488949); also: top concentration of the series differs between compounds; % is scaled to controls: 0 for no effect and ±100 for the full control effect; nearly all actives have a fitted effect of over 55% in size
Chain of UniProt Q99549 (Q99549 whole entry, looked up): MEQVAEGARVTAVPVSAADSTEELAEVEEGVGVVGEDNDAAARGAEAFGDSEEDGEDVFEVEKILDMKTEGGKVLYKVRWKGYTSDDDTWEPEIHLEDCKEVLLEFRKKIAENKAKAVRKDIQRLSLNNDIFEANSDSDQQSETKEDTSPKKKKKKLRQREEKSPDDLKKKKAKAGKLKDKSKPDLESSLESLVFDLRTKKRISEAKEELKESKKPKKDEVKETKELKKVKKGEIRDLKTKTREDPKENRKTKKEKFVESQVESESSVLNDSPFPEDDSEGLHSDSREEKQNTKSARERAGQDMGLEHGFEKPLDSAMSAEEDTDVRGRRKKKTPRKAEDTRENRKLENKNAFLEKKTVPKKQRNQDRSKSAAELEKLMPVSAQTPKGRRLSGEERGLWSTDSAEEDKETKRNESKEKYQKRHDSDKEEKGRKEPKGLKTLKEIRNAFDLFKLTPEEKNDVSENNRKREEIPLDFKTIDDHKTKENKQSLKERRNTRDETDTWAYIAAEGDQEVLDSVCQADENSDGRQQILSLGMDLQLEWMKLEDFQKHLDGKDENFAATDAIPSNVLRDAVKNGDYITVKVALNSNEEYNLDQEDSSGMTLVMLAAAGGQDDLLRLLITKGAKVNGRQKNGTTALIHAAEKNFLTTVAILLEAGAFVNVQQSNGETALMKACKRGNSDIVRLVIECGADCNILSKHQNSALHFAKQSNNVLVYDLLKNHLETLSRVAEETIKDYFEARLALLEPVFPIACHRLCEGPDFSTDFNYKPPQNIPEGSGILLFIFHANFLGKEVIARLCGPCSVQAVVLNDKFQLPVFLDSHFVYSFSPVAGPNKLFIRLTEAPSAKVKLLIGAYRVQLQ
Outline: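 MPP8 (50 nM) was pre-bound to 50 nM biotinylated H3(1-18)K9me3 peptide in PBS pH 7.4 with 0.01% Tween-20. Compounds were then added for 30 min at room temperature, and complex disruption was read by AlphaScreen with streptavidin donor and nickel-chelate acceptor beads.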

[25] = Validation screen for small molecules that induce genotoxicity in human embryonic kidney (HEK293T) cells expressing luciferase-tagged ELG1 (AID 493106); also: potency is read from the fitted curve at half-maximal effect
Outline: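 Cells were dispensed at 2,000 per well, then 23 nL compound or DMSO was pinned in. After 16 hr at 37 °C and 5% CO2, ONE-Glo reagent was added. Luciferase activity was measured following 30 min at room temperature.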

[26] = qHTS for Activators of Parkin Expression: LOPAC Validation Assay (FLuc Reporter) (AID 720573; also: potency is read from the fitted curve at half-maximal effect)
Outline: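 Neuronal cell line stably expressing FLuc/NLuc coincidence reporter under the Parkin promoter, 1,500 cells/well, dosed 24 h after seeding in 7-point series for 24 h at 37 C. FLuc luminescence read; normalized to DMSO and positive control (100%).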

[27] = qHTS Assay for Identifying Gametocytocidal Compounds (AID 743244); also: potency is read from the fitted curve at half-maximal effect; details: P. falciparum 3D7 stage III-V gametocytes, alamarBlue, 72 h; max response: stronger effect = lower value
Outline: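 Fluorescence at Ex 525/Em 598 nm, recorded 24 h after alamarBlue addition, reports residual metabolic activity of 3D7 gametocytes (stages III–V) following 72 h compound exposure at 37 °C, 5% CO2.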

[28] = target: Lysine-specific demethylase 5B (Homo sapiens) (UniProt Q9UGL1); test: Optimization screen for KDM5B Histone Demethylases FDH coupled qHTS against the LOPAC library (AID 1347166); details: KDM5B demethylation, FDH-coupled NADH fluorescence (FDH is formaldehyde dehydrogenase); activity, negative = inhibition: at 57.5 µM (top of the series) unless noted; also: potency is read from the fitted curve at half-maximal effect
Chain of UniProt Q9UGL1 (Q9UGL1 whole entry, looked up): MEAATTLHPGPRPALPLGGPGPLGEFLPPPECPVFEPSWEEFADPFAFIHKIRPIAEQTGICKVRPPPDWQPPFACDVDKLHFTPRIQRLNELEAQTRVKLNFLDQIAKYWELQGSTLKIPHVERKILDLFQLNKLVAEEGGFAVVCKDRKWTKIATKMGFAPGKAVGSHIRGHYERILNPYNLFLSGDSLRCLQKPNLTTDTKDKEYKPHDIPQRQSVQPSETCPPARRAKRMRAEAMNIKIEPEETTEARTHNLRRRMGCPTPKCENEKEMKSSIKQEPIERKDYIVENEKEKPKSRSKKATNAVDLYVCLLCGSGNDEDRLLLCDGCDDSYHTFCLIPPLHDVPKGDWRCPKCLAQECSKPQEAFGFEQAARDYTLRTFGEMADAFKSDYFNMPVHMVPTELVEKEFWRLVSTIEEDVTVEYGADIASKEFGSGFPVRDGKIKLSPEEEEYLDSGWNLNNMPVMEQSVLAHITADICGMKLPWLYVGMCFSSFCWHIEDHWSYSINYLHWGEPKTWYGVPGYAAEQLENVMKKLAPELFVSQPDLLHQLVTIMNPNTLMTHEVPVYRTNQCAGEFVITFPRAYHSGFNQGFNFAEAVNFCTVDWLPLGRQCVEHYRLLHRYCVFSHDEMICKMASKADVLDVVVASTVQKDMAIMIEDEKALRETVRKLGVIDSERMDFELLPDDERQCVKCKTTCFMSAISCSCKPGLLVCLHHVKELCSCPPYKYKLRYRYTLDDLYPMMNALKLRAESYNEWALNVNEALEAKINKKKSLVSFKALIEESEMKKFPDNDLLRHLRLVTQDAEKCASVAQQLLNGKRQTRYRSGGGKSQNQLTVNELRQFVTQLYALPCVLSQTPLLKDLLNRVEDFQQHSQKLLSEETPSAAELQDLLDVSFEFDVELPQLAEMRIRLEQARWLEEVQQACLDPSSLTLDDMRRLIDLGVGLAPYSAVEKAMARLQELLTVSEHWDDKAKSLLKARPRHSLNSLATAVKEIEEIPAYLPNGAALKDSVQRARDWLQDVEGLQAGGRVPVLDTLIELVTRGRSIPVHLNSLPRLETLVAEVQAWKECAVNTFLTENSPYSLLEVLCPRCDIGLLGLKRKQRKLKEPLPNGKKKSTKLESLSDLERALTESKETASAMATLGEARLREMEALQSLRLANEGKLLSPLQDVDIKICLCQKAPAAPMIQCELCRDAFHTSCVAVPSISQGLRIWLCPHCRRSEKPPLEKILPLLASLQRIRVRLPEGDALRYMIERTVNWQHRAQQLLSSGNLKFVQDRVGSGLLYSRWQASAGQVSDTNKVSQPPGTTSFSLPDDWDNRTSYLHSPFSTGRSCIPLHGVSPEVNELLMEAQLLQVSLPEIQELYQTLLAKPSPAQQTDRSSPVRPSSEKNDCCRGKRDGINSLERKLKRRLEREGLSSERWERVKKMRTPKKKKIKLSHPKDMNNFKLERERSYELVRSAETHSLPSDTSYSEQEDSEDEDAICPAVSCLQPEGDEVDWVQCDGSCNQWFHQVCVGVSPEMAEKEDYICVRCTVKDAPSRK
Outline: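 KDM5BDeltaAP (200nM final) in 50mM HEPES pH 7.5, 0.01% Tween-20 was preincubated with compound for 10 min at room temperature. A substrate mix of 12.5uM H3K4Me3, 25uM a-ketoglutarate, ascorbate, Fe2+, NAD+ and formaldehyde dehydrogenase was then added. NADH fluorescence (340/450 nm) was read initially and after 30 min.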
Tags tell the direction and shape of the fitted curve.

O=C(OC1Cc2c(O)cc(O)cc2OC1c1cc(O)c(O)c(O)c1-c1c(C2Oc3cc(O)cc(O)c3CC2O)cc(O)c(O)c1O)c1cc(O)c(O)c(O)c1 (centres undefined)
active: Potency [2] 44.7 µM | Potency [4] 44.1 µM | Potency [6] 22.4 µM
inactive: Potency [1] | Potency [5] | Potency [7]
inconclusive: Potency [3] 49.4 µM [inhibitor, partial curve]

Cc1cccc(C)c1NS(=O)(=O)c1ccc(NS(=O)(=O)c2ccc3c(c2)OCCO3)cc1
inconclusive: Potency [5] 3.98 µM [inhibitor, full curve] | Potency [7] 37 µM [inhibitor, single point]
inactive: Potency [3]

Cc1ccc2c(=O)c3ccccc3n(CCCN)c2c1C
inconclusive: Potency [3] 24.1 µM [inhibitor, partial curve, poor fit] | Potency [9] 55.3 µM [inhibitor, partial curve] | Potency [10] 11.7 µM [cytotoxic, single point] | Potency [7] 9.27 µM [inhibitor, partial curve]
active: Potency [8] 21.2 µM

O=c1[nH]c2cc(Cl)c(Cl)cc2[nH]c1=O
inactive: Potency [12] | Potency [15] | Potency [24]
inconclusive: Potency [11] 0.0316 µM [activator, full curve, poor fit] | activation [13] -33.6% | Potency [14] 12.6 µM [activator, single point] | activity change, negative = inhibition [16] 14.7% | Potency [17] 3.55 µM [inhibitor, full curve, poor fit] | Potency [18] 3.98 µM [inhibitor, full curve, poor fit] | Potency [19] 3.98 µM [inhibitor, full curve, poor fit] | Potency [20] 3.55 µM [inhibitor, full curve] | Potency [21] 63.1 µM [inhibitor, partial curve, poor fit] | Potency [22] 0.757 µM [activator, full curve, poor fit] | Potency [23] 0.657 µM [inhibitor, full curve, poor fit] | Potency [25] 20.6 µM [activator, single point] | Potency [26] 9.2 µM [activator, partial curve] | Potency [27] 5.62 µM [inhibitor, single point] | Potency [8] 21.2 µM [inhibitor, single point] | Potency [28] 31.6 µM [inhibitor, partial curve, poor fit]
